Laboratory results taken from the supplement of paper PMC12217912.
The list shows a part of the results. The full chains were built here from the parent and the listed change. Inactive controls read about 0.05.

B1: TEV protease; numbered along this chain (parent)
chain: MGESLFKGPRDYNPISSSICHLTNESDGHTTSLYGIGFGPFIITNKHLFRRNNGTLVVQSLHGVFKVKDTTTLQQHLVDGRDMIIIRMPKDFPPFPQKLKFREPQREERICLVTTNFQTKSMSSMVSDTSCTFPSGDGIFWKHWIQTKDGQCGSPLVSTRDGFIVGIHSASNFTNTNNYFTSVPKNFMELLTNQEAQQWVSGWRLNADSVLWGGHKVFMVKPEEPFQPVKEATQL

Variants of: B1
Assay: raw area under fraction-flipped curve 0-4 h after induction (AUC4h, not background-subtracted), DNA-recorder readout of cleavage of the substrate (dimensionless); higher = more cleavage of the substrate by the protease variant
Details: temperature: 34 °C; time window: 0-4 h after rhamnose induction
Experimental: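 In vivo DNA recorder in E. coli TOP10(DE3) ΔrhaA at 34 °C. Each TEVp single-site mutant (parent TEVp 0) is paired with a single-site variant of the 7-mer TEVs (canonical ENLYFQ|S). The substrate sits between flexible linkers in a Bxb1-sfGFP-TEVs-SsrA fusion, so cleavage stabilises Bxb1 and speeds flipping of a recombination array, read by NGS. The value is the raw area under the fraction-flipped curve over 0-4 h after rhamnose induction (AUC4h), with ≥20 reads per time point. It is not background-subtracted; inactive controls average about 0.047.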
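Further: Bxb1 expression induced with 0.2% (w/v) L-rhamnose at OD600 near 0.5, cultures sampled hourly, flipped fraction per protease–substrate barcode pair counted by paired-end Illumina sequencing.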

Variant | area with substrate ENLYFAS | area with substrate ENLYFCS | area with substrate ENLYFDS | area with substrate ENLYFES | area with substrate ENLYFFS | area with substrate ENLYFHS | area with substrate ENLYFIS | area with substrate ENLYFMS | area with substrate ENLYFNS | area with substrate ENLYFPS | area with substrate ENLYFRS | area with substrate ENLYFTS | area with substrate ENLYFYS | area with substrate ENLYFGS | area with substrate ENLYFKS | area with substrate ENLYFLS | area with substrate ENLYFSS | area with substrate ENLYFVS | area with substrate ENLYFWS
K221V | 0.0643 | 0.0474 | 0.0789 | 0.0609 | 0.0583 | 0.0889 | 0.0502 | 0.0603 | 0.0403 | 0.0535 | 0.0477 | 0.0595 | 0.0581 | – | – | – | – | – | –
P222E | 0.057 | 0.0607 | – | 0.0631 | 0.0672 | 0.0667 | 0.0508 | 0.0673 | 0.0549 | 0.0596 | 0.0654 | – | – | 0.0675 | 0.0624 | 0.0486 | 0.0618 | 0.0693 | –
E223H | 0.0569 | 0.0627 | – | 0.0677 | 0.0731 | 0.0607 | 0.0513 | 0.0829 | 0.0641 | – | 0.0672 | 0.059 | 0.064 | – | 0.0666 | – | 0.0591 | – | 0.0702
E223M | 0.0563 | – | 0.0651 | 0.0676 | – | – | 0.0532 | 0.0675 | 0.0445 | – | – | – | 0.0652 | – | 0.0626 | 0.0589 | 0.0442 | – | 0.0417
P225A | 0.0516 | 0.0638 | – | 0.0671 | 0.06 | – | 0.0536 | 0.0552 | – | – | 0.0661 | 0.0576 | – | – | 0.0391 | – | – | 0.0629 | 0.056
P225L | 0.0486 | 0.0616 | – | 0.0729 | 0.0631 | 0.0495 | 0.061 | 0.0675 | 0.0638 | 0.0502 | 0.058 | 0.0657 | – | – | – | – | 0.0507 | – | 0.0525
F226I | 0.0204 | – | – | – | 0.0769 | 0.0582 | 0.0707 | 0.0687 | 0.0652 | 0.065 | – | 0.037 | 0.0476 | – | 0.0767 | 0.0531 | – | 0.0496 | –
Q227S | 0.0587 | 0.0532 | – | 0.0615 | 0.0579 | – | 0.0584 | 0.0601 | – | 0.0655 | 0.0671 | 0.078 | 0.0581 | – | – | – | 0.0522 | – | 0.0612
P228H | 0.0668 | – | 0.0632 | 0.0695 | 0.0732 | 0.0534 | 0.0523 | 0.0631 | – | 0.0609 | 0.0503 | 0.0533 | – | 0.0618 | 0.0587 | – | 0.0571 | 0.058 | 0.0531
P228Q | 0.0652 | – | – | 0.076 | 0.0569 | 0.0655 | 0.0565 | 0.0661 | 0.0639 | 0.053 | 0.0643 | 0.0659 | – | 0.0617 | 0.0623 | – | – | 0.0615 | –
P228V | 0.059 | 0.0373 | 0.063 | – | 0.0662 | – | 0.0575 | 0.0607 | 0.068 | – | 0.055 | 0.0519 | 0.0639 | 0.0385 | 0.0562 | 0.044 | – | – | 0.0549
V229G | 0.0562 | – | – | 0.0673 | 0.0812 | 0.0619 | 0.0536 | 0.0704 | 0.0737 | 0.0533 | 0.0632 | 0.0559 | – | – | 0.0498 | 0.0585 | – | 0.0619 | 0.0569
V229M | 0.058 | 0.0598 | 0.0593 | 0.0648 | 0.054 | – | 0.0413 | 0.0749 | 0.07 | 0.0756 | 0.0598 | – | 0.0599 | – | 0.0615 | 0.0533 | – | – | –
K230F | 0.0607 | – | 0.064 | 0.0694 | 0.0724 | 0.0616 | 0.0642 | 0.0714 | 0.066 | 0.0645 | – | 0.0514 | 0.0611 | 0.0532 | 0.0631 | – | 0.0552 | 0.0608 | –
K230P | 0.0556 | – | 0.0769 | 0.0702 | 0.0637 | 0.049 | 0.0577 | 0.0529 | – | 0.0609 | – | 0.0643 | – | – | – | 0.0533 | 0.0471 | – | 0.0649
E231A | 0.0656 | – | – | 0.0716 | 0.0817 | – | 0.0482 | 0.0404 | – | 0.062 | 0.0654 | 0.0581 | 0.0504 | 0.0643 | 0.0591 | – | – | – | 0.0529
E231Q | 0.0597 | 0.0766 | 0.0641 | 0.0599 | 0.0407 | – | 0.0564 | – | 0.0569 | 0.0639 | – | 0.0664 | – | – | 0.0533 | – | 0.0641 | 0.0495 | 0.062
T233N | 0.045 | – | – | 0.071 | 0.0724 | 0.0679 | 0.0566 | 0.0872 | 0.062 | 0.0485 | 0.0599 | 0.0514 | 0.052 | 0.0662 | 0.0672 | 0.0561 | – | 0.0488 | –
T233R | 0.0711 | 0.0719 | 0.055 | 0.0719 | 0.0649 | 0.0527 | 0.0606 | 0.064 | – | 0.0577 | – | 0.0458 | 0.064 | – | – | 0.0646 | – | 0.0538 | 0.0575
Q234L | 0.0633 | 0.0514 | – | 0.0547 | 0.0662 | – | 0.0667 | – | 0.0631 | 0.0653 | 0.057 | 0.0605 | – | – | – | – | 0.0575 | 0.0605 | –
S4W | – | 0.0691 | 0.0507 | – | 0.067 | – | 0.059 | 0.0608 | 0.0664 | 0.0687 | – | 0.0658 | 0.0613 | – | 0.0674 | 0.0527 | 0.0325 | 0.0697 | 0.0625
F6Q | – | 0.0718 | – | 0.052 | 0.06 | 0.0592 | 0.0454 | 0.0805 | – | – | – | – | 0.0581 | – | – | – | – | 0.0434 | 0.0592
I19N | – | 0.0132 | – | 0.0622 | 0.0566 | 0.0208 | 0.046 | 0.0555 | 0.0784 | 0.0521 | 0.0559 | – | 0.0471 | 0.0638 | – | 0.0654 | 0.0503 | 0.0489 | –
I19S | – | 0.0535 | – | 0.0652 | 0.0503 | – | 0.0827 | 0.0572 | – | 0.0544 | – | 0.0523 | – | – | – | – | – | – | –
D27L | – | 0.0607 | 0.0498 | 0.0539 | 0.0665 | 0.0424 | 0.0588 | 0.0611 | 0.057 | 0.0566 | 0.0812 | 0.0475 | 0.0514 | 0.0624 | 0.0525 | 0.0775 | 0.0596 | 0.0484 | 0.0735
T30Q | – | 0.0618 | – | 0.056 | 0.0521 | 0.0634 | 0.05 | 0.0723 | 0.0626 | 0.0447 | 0.0451 | 0.0714 | 0.0603 | 0.0611 | 0.0578 | 0.068 | – | 0.0787 | 0.0647
